{
  "source": "PubChem BioAssay AID1347428",
  "about": "(National Center for Advancing Translational Sciences (NCATS), 2020)",
  "note": "The whole screen tested about 91,000 compounds, of which about 290 (0.32%) were called active. This list was built around the results that the source calls inconclusive (neither active nor inactive); the mix of calls is not that of the screen. Calls follow the shape of the dose curve; as a rule, active = well fitted inhibition curve with a large enough effect; inconclusive = small, poorly fitted or top-dose-only effect; inactive = no such curve, though single readings can be large or run the other way. Where the call is inconclusive, the potency comes from a doubtful curve fit. % is scaled to controls: 0 for no effect and ±100 for the full control effect; potency is read from the fitted curve at half-maximal effect; tags tell the direction and shape of the fitted curve.",
  "data": [
    {"target": "Single-stranded DNA cytosine deaminase (Homo sapiens) (UniProt Q9GZX7)", "sequence (Q9GZX7 whole entry, looked up)": "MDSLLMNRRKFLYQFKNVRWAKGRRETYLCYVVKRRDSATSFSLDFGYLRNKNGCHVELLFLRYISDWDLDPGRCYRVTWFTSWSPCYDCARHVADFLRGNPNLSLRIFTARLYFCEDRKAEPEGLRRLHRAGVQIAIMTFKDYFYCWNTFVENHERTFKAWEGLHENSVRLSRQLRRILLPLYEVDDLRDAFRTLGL", "assay": "Primary qHTS assay for inhibitors of Activation Induced Cytidine Deaminase (AID): AID signal; also: nearly all actives have a fitted effect of over 25% in size", "settings": "AID deamination FRET fluorescence, UDG-coupled, 4 h; activity change, negative = inhibition: at 115 µM (top of the series)", "values": [
      {"compound": "COc1cccc(NC(=O)c2c(C)nn(-c3cccc(C)c3)c2-n2cccc2)c1", "Potency": "inconclusive: 28.2 µM [inhibitor, partial curve, poor fit]"},
      {"compound": "CCOC(=O)c1cnc2c(ccc3ccccc32)c1Nc1ccc(N(C)C)cc1", "Potency": "inconclusive: 50.1 µM [inhibitor, partial curve, poor fit]"},
      {"compound": "CC(C)N(Cc1ccccc1)C(=O)c1nc(-c2ccc(Cl)cc2)n2c1CCCCC2", "Potency": "inconclusive: 35.5 µM [inhibitor, partial curve, poor fit]"},
      {"compound": "Cc1nn(C)c(C)c1CNCc1ccc(N2CCOCC2)nc1", "activity change, negative = inhibition": "inactive: 3.5%"},
      {"compound": "Cc1ccc(N(C)C(=O)c2sc3nc4n(c(=O)c3c2C)CCCC4)cc1C", "Potency": "inconclusive: 56.2 µM [inhibitor, partial curve, poor fit]"},
      {"compound": "CCCCN(CC)C(=O)CSc1nc2n[nH]c(C)c2c(=N)n1-c1ccc(CC)cc1", "Potency": "inconclusive: 79.4 µM [inhibitor, partial curve, poor fit]"},
      {"compound": "CCOc1ccc(-c2cccc(NS(=O)(=O)c3ccc(C)s3)c2)nn1", "activity change, negative = inhibition": "inactive: 0.913%"},
      {"compound": "Cc1[nH][nH]c(=O)c1C(c1ccccc1OCc1ccccc1Cl)c1c(C)[nH][nH]c1=O", "Potency": "inconclusive: 89.1 µM [inhibitor, partial curve, poor fit]"},
      {"compound": "CCOc1ccc(CNC(=O)c2oc3c(c2C)-c2nn(Cc4cccc(Cl)c4)cc2CC3)cc1", "Potency": "inconclusive: 56.2 µM [inhibitor, partial curve, poor fit]"},
      {"compound": "CCCCOc1ccccc1C1CC(=O)Nc2ccc3ccccc3c21", "note": "(centres undefined)", "Potency": "inconclusive: 20 µM [inhibitor, partial curve, poor fit]"},
      {"compound": "O=C(c1ccc2c(c1)N(Cc1ccc(Cl)cc1)C(=O)c1ccccc1S2(=O)=O)N1CCCC1", "Potency": "inconclusive: 50.1 µM [inhibitor, partial curve, poor fit]"},
      {"compound": "Oc1ccc(C=Nc2cccc3ccccc23)cc1", "activity change, negative = inhibition": "inactive: 28%"},
      {"compound": "COc1cccc2cc(-c3cc(=O)oc4cc(OC(=O)N5CCOCC5)ccc34)c(=O)oc12", "Potency": "inconclusive: 44.7 µM [inhibitor, partial curve, poor fit]"},
      {"compound": "O=[N+]([O-])c1ccc(NS(=O)(=O)c2ccc(I)s2)c([N+](=O)[O-])c1", "Potency": "inconclusive: 50.1 µM [inhibitor, partial curve, poor fit]"},
      {"compound": "CCCCC1CCC(C(=O)N2CC(=O)Nc3ccc(Br)cc3C2c2ccc(F)cc2)CC1", "note": "(centres undefined)", "Potency": "inconclusive: 22.4 µM [inhibitor, full curve]"},
      {"compound": "CCCCCOc1ccc(C(=O)C(CCC(CNC(C)(C)C)C(=O)c2ccc(OCCCCC)cc2)CNC(C)(C)C)cc1", "note": "(centres undefined)", "Potency": "inconclusive: 79.4 µM [inhibitor, single point]"},
      {"compound": "Cc1ccc(N(CC(=O)N2CCN(c3cc(C)ccc3C)CC2)S(=O)(=O)c2c(C)nn(C)c2C)cc1", "Potency": "inconclusive: 56.2 µM [inhibitor, partial curve, poor fit]"},
      {"compound": "CCn1cc2c(n1)-c1c(oc(C(=O)Nc3ccc(Br)cc3F)c1C)CC2", "Potency": "inconclusive: 44.7 µM [inhibitor, partial curve, poor fit]"},
      {"compound": "CCOc1ccc(N(C)C(=O)c2oc(=O)c3ccccc3c2-c2ccccc2)cc1", "Potency": "inconclusive: 50.1 µM [inhibitor, partial curve, poor fit]"},
      {"compound": "CC(C)Sc1nc2c(c(=O)n(C)c(=O)n2C)n1Cc1cccc2ccccc12", "Potency": "inconclusive: 50.1 µM [inhibitor, partial curve, poor fit]"},
      {"compound": "CCN(CC)CCOC(=O)c1ccc(Nc2c3c(nc4ccccc24)CCC3)cc1", "Potency": "inconclusive: 79.4 µM [inhibitor, partial curve, poor fit]"},
      {"compound": "O=C(COC(=O)c1ccc(-c2nnc(-c3ccccc3)o2)cc1)c1ccc(F)cc1", "activity change, negative = inhibition": "inactive: 2.17%"},
      {"compound": "CCc1ccc(-c2c(C)sc(N)c2C#N)cc1", "activity change, negative = inhibition": "inactive: 9.75%"},
      {"compound": "O=C(CN1CCC(C(=O)NCc2ccco2)CC1)NC1CCCC1", "activity change, negative = inhibition": "inactive: 2.65%"},
      {"compound": "O=C(Nc1c(Cl)cc(Cl)cc1Cl)C12CC3CC(CC(Cl)(C3)C1)C2", "activity change, negative = inhibition": "inactive: -19.5%"},
      {"compound": "O=C(O)c1ccccc1NS(=O)(=O)c1cc([N+](=O)[O-])ccc1N/N=C/c1ccsc1", "Potency": "inconclusive: 79.4 µM [inhibitor, partial curve, poor fit]"},
      {"compound": "COc1ccccc1/C=C/c1nc(C#N)c(NCC(C)C)o1", "Potency": "inconclusive: 63.1 µM [inhibitor, partial curve, poor fit]"},
      {"compound": "N#Cc1ccc(COC(=O)c2ccccc2-c2ccccc2C#N)cc1", "activity change, negative = inhibition": "inactive: -9.97%"},
      {"compound": "Cc1ccc(C)c(CSc2nc3nc[nH]c3c(=O)[nH]2)c1", "activity change, negative = inhibition": "inactive: 1.61%"},
      {"compound": "COc1ccc(C)cc1NC(=O)c1nnn(-c2c(C)cccc2C)c1C", "Potency": "inconclusive: 35.5 µM [inhibitor, single point]"},
      {"compound": "Cc1ccc(CN2CCC(CNC(=O)Nc3ccc(C)c(C)c3)C2)cc1", "note": "(centres undefined)", "Potency": "inconclusive: 56.2 µM [inhibitor, partial curve, poor fit]"},
      {"compound": "Cc1ccc(-c2c(C(=O)O)sc3c2cnc2ccc(C)cc23)cc1", "Potency": "inconclusive: 56.2 µM [inhibitor, partial curve, poor fit]"},
      {"compound": "Cc1cccc2c1-c1sc(C(=O)NCCCN3CCN(c4ccccc4F)CC3)cc1CO2", "Potency": "inconclusive: 25.1 µM [inhibitor, full curve, poor fit]"},
      {"compound": "Cc1ccccc1CS(=O)CCC(=O)Nc1ccccc1", "note": "(centres undefined)", "activity change, negative = inhibition": "inactive: 0.152%"},
      {"compound": "CCOc1ccc(C(=O)/C=C/c2cn(CC(O)CN3CCc4ccccc43)c3ccccc23)cc1", "note": "(centres undefined)", "Potency": "inconclusive: 22.4 µM [inhibitor, single point]"},
      {"compound": "CCOc1ccc(C(C)NC(=O)c2ccc(NS(=O)(=O)c3ccc(F)cc3)cc2)cc1OCC", "note": "(centres undefined)", "activity change, negative = inhibition": "inactive: -4.88%"},
      {"compound": "Cc1ccccc1OCCn1cc(C(=O)c2ccco2)c2ccccc21", "Potency": "inconclusive: 28.2 µM [inhibitor, full curve, poor fit]"},
      {"compound": "Cc1ccc(CSc2ncc(Cl)c(C(=O)Oc3ccccc3F)n2)cc1", "activity change, negative = inhibition": "inactive: -13.3%"},
      {"compound": "COc1ccc(CNc2ncnc3onc(-c4ccc(F)cc4)c23)cc1", "Potency": "inconclusive: 12.6 µM [inhibitor, full curve, poor fit]"},
      {"compound": "COc1ccc(Nc2nc(Nc3ccc(C)c(Cl)c3)c3nccnc3n2)cc1", "Potency": "inconclusive: 35.5 µM [inhibitor, partial curve, poor fit]"},
      {"compound": "COc1cc(/C=C(\\C#N)c2nc3ccccc3[nH]2)ccc1OCc1cccc(C(F)(F)F)c1", "Potency": "inconclusive: 70.8 µM [inhibitor, partial curve, poor fit]"},
      {"compound": "Cc1c(-c2cccc3ccccc23)c(=O)oc2ccc(Br)cc12", "activity change, negative = inhibition": "inactive: -11.2%"},
      {"compound": "COc1ccc(-c2nn3c(-c4ccccc4C)nnc3c3ccccc23)cc1", "Potency": "inconclusive: 50.1 µM [inhibitor, partial curve, poor fit]"},
      {"compound": "C(#CCN1CCN(Cc2ccccc2)CC1)COCCOC(c1ccccc1)c1ccccc1", "activity change, negative = inhibition": "inactive: -17.5%"},
      {"compound": "CCOCCCNc1ncnc2onc(C)c12", "activity change, negative = inhibition": "inactive: 18.4%"},
      {"compound": "Oc1ccc(Br)cc1/C=N/c1nc(C23CC4CC(CC(C4)C2)C3)cs1", "Potency": "inconclusive: 56.2 µM [inhibitor, partial curve, poor fit]"},
      {"compound": "COc1ccccc1Nc1nn2c(=O)c3ccc(C(=O)N4CCCC(C)C4)cc3nc2s1", "note": "(centres undefined)", "Potency": "inconclusive: 56.2 µM [inhibitor, partial curve, poor fit]"},
      {"compound": "COc1ccc(CNC(=O)c2c3c(nc4ccccc24)C(=O)N(C2CCCCC2)C3)cc1", "Potency": "inconclusive: 56.2 µM [inhibitor, partial curve, poor fit]"},
      {"compound": "Nc1ccc(C2=CSC3=NCCCN23)cc1", "activity change, negative = inhibition": "inactive: 5.42%"},
      {"compound": "Brc1c(NC2=NCCN2)ccc2nccnc12", "Potency": "inconclusive: 89.1 µM [inhibitor, single point]"},
      {"compound": "Cc1ccc(-n2cnnn2)cc1NC(=O)c1sccc1C", "activity change, negative = inhibition": "inactive: 4.59%"},
      {"compound": "CCC(C(=O)NCCc1ccccc1)n1nc(C)n2c(cc3sccc32)c1=O", "note": "(centres undefined)", "Potency": "inconclusive: 63.1 µM [inhibitor, partial curve, poor fit]"},
      {"compound": "COc1ccc(CCNC(=O)c2ccc3c(c2)ncn3-c2ccc(C)cc2C)cc1OC", "Potency": "inconclusive: 63.1 µM [inhibitor, partial curve, poor fit]"},
      {"compound": "CCc1ccc(S(=O)(=O)c2nnn3c2nc(NC(C)C)c2sccc23)cc1", "Potency": "inconclusive: 20 µM [inhibitor, partial curve, poor fit]"},
      {"compound": "CCN(CC)CCNC(=O)c1ccc2c(=O)n3nc(Nc4ccccc4OC)sc3nc2c1", "Potency": "active: 70.8 µM"},
      {"compound": "O=S1(=O)c2ccccc2N(Cc2cccc(Cl)c2)c2ccccc21", "Potency": "inconclusive: 17.8 µM [inhibitor, full curve, poor fit]"},
      {"compound": "O=C(Nc1cccc(S(=O)(=O)N2CCCC2)c1)C1CC(=O)N(C2CCCC2)C1", "note": "(centres undefined)", "activity change, negative = inhibition": "inactive: -9.38%"},
      {"compound": "COc1ccc(CCNC(=O)c2ccc3c(c2)N(Cc2ccc(F)cc2)C(=O)CS3)cc1OC", "Potency": "inconclusive: 35.5 µM [inhibitor, partial curve, poor fit]"},
      {"compound": "Cc1ccc(/C=C/C(=O)NCC(C)(C)CNC(=O)/C=C/c2ccc(C)o2)o1", "activity change, negative = inhibition": "inactive: 42%"},
      {"compound": "Cc1ccc(NS(=O)(=O)c2ccc(-n3cccn3)cc2)cc1Cl", "activity change, negative = inhibition": "inactive: 4.23%"},
      {"compound": "O=C(CSc1nnc2ccc3ccccc3n12)Nc1ccccc1Cl", "Potency": "inconclusive: 56.2 µM [inhibitor, partial curve, poor fit]"},
      {"compound": "COc1ccc(NC(=O)CSc2nc3nc(C)c(Cc4ccccc4)c(C)n3n2)cc1OC", "Potency": "inconclusive: 28.2 µM [inhibitor, full curve, poor fit]"},
      {"compound": "CCOc1ccc(/C(O)=C2\\C(=O)C(=O)N(Cc3ccco3)C2c2ccccc2)cc1Cl", "note": "(centres undefined)", "Potency": "inconclusive: 44.7 µM [inhibitor, partial curve]"},
      {"compound": "Cc1nn(-c2ccc(F)cc2)c(-n2cccc2)c1C(=O)NCCc1ccc(Cl)cc1", "Potency": "inconclusive: 8.91 µM [inhibitor, partial curve, poor fit]"}
    ]}
  ]
}
